Source: patent publication US8242166B2, “C(10) ethyl ester and C(10) cyclopropyl ester substituted taxanes” (Florida State University Research Foundation, Inc., priority 2008, dated 2012)

Legend:
Sprague-Dawley rats [1] = experiment: Rat toxicity study e195; type: in vivo
Sprague-Dawley rats [2] = experiment: Rat toxicity study e346 multiple dose; conditions: for Score AVE: average rat toxicity score of 3 rats; for Day 1 BW: body weight Day 1; for Day 22 BW: body weight Day 22; for Day 24 BW: body weight Day 24; for Score: rat toxicity score; for Total: sum of score points; for axonal degeneration vs docetaxel: ethanol, Liposyn II 20% (5:95)
Sprague-Dawley rats [3] = experiment: Rat toxicity study e196; type: in vivo
Sprague-Dawley rats [4] = experiment: Rat toxicity study e199
[5] = 12 mg/kg IV, individual rats, sum of points, possible 130
[6] = 12 mg/kg IV, individual rats, total divided by 13, scale 0 to 10
[7] = intravenous, ethanol and Liposyn II 20% formulation
[8] = 12 mg/kg IV, individual rats, axonal degeneration grade
[9] = 12 mg/kg IV, average of three rats

Row | SMILES | Score AVE (Sprague-Dawley rats [2]; 12 mg/kg IV) | Day 18 ALT (Sprague-Dawley rats [2]; 12 mg/kg IV, individual rat) | Day 18 AST (Sprague-Dawley rats [2]; 12 mg/kg IV, individual rat) | Day 18 BUN (Sprague-Dawley rats [2]; 12 mg/kg IV, individual rat) | Day 18 PLT (Sprague-Dawley rats [2]; 12 mg/kg IV, individual rat) | Day 18 WBC (Sprague-Dawley rats [2]; 12 mg/kg IV, individual rat) | Day 24 PLT (Sprague-Dawley rats [2]; 12 mg/kg IV, individual rat) | Day 1 BW (Sprague-Dawley rats [2]; 12 mg/kg IV, individual rat) | Day 22 BW (Sprague-Dawley rats [2]; 12 mg/kg IV, individual rat) | Day 24 BW (Sprague-Dawley rats [2]; 12 mg/kg IV, individual rat) | Score (Sprague-Dawley rats [2]; 12 mg/kg IV, individual rat) | Total (Sprague-Dawley rats [2]; 12 mg/kg IV, individual rat) | axonal degeneration vs docetaxel (Sprague-Dawley rats [2]; weekly) | Day 24 WBC (Sprague-Dawley rats [2]; 12 mg/kg IV, individual rat) | other results
1 | CC(=O)O[C@@]12CO[C@@H]1C[C@H](O)[C@@]1(C)C(=O)[C@H](OC(=O)C3CC3)C3=C(C)[C@@H](OC(=O)[C@H](O)[C@@H](NC(=O)OC4CCCC4)c4cccs4)C[C@@](O)([C@@H](OC(=O)c4ccccc4)C12)C3(C)C (some centres unmarked) [Compound 17932] | 5.9 | 38 (2×) and 28 | 164 and 142 and 144 | 16 and 12 and 11 | 546 and 1083 and 627 | 5.2 and 5.04 and 4.52 | 1134 and 1329 and 1010 | 250 and 231 and 230 | 190 and 185 and 168 | 193 and 199 and 188 | 5.4 and 6.5 and 5.8 | 70 and 85 and 75 | much less axonal degeneration than docetaxel | – | Day 1 BW (Sprague-Dawley rats [1]; 12 mg/kg IV, individual rats): 231 and 230 and 234; Day 4 ALT (Sprague-Dawley rats [1]; 12 mg/kg IV, individual rats): 20 and 24 and 27; Day 4 AST (Sprague-Dawley rats [1]; 12 mg/kg IV, individual rats): 100 and 111 and 121; Day 4 BUN (Sprague-Dawley rats [1]; 12 mg/kg IV, individual rats): 9 (2×) and 15; Day 4 PLT (Sprague-Dawley rats [1]; 12 mg/kg IV, individual rats): 836 and 854 and 742; Day 4 WBC (Sprague-Dawley rats [1]; 12 mg/kg IV, individual rats): 7.92 and 9.24 and 5.47; Day 8 BW (Sprague-Dawley rats [1]; 12 mg/kg IV, individual rats): 205 and 211 (2×); Day 10 BW (Sprague-Dawley rats [1]; 12 mg/kg IV, individual rats): 210 and 211 and 226; Day 10 PLT (Sprague-Dawley rats [1]; 12 mg/kg IV, individual rats): 1207 and 1506 and 957; Day 10 WBC (Sprague-Dawley rats [1]; 12 mg/kg IV, individual rats): 14.6 and 25.3 and 11.2; Total (Sprague-Dawley rats [1]; [5]): 95 and 100 and 120; Score (Sprague-Dawley rats [1]; [6]): 7.3 and 7.7 and 9.2; axonal degeneration (Sprague-Dawley rats [1]; [7]): very little axonal degeneration; rat toxicity score (average) (Sprague-Dawley rats [1]; [7]): 8.1; rat toxicity score (single values averaged) (Sprague-Dawley rats [1]; [7]): 7.3 and 7.7 and 9.2
2 | CC(=O)O[C@@]12CO[C@@H]1C[C@H](O)[C@@]1(C)C(=O)[C@H](OC(=O)C3CC3)C3=C(C)[C@@H](OC(=O)[C@H](O)[C@@H](NC(=O)OC4CCC4)c4cccs4)C[C@@](O)([C@@H](OC(=O)c4ccccc4)C12)C3(C)C (some centres unmarked) [Compound 18365] | 6.4 | – | 162 and 153 and 276 | 10 and 9 (2×) | 699 and 772 and 751 | 4.03 and 4.68 and 7.36 | 1270 and 1053 and 1305 | 214 and 236 and 260 | 201 and 226 and 230 | 216 and 232 and 241 | 6.9 and 7.7 and 4.6 | 90 and 100 and 60 | much less axonal degeneration than docetaxel | 7.03 and 6.24 and 14.4 | Day 1 BW (Sprague-Dawley rats [3]; 12 mg/kg IV, individual rats): 222 and 229 and 239; Day 4 ALT (Sprague-Dawley rats [3]; 12 mg/kg IV, individual rats): 19 and 20 (2×); Day 4 AST (Sprague-Dawley rats [3]; 12 mg/kg IV, individual rats): 101 and 81 and 98; Day 4 BUN (Sprague-Dawley rats [3]; 12 mg/kg IV, individual rats): 18 and 15 (2×); Day 4 PLT (Sprague-Dawley rats [3]; 12 mg/kg IV, individual rats): 968 and 1035 and 1106; Day 4 WBC (Sprague-Dawley rats [3]; 12 mg/kg IV, individual rats): 5.65 and 3.39 and 5.62; Day 8 BW (Sprague-Dawley rats [3]; 12 mg/kg IV, individual rats): 203 and 213 and 225; Day 10 BW (Sprague-Dawley rats [3]; 12 mg/kg IV, individual rats): 211 and 225 and 241; Day 10 PLT (Sprague-Dawley rats [3]; 12 mg/kg IV, individual rats): 1201 and 1080 and 1214; Day 10 WBC (Sprague-Dawley rats [3]; 12 mg/kg IV, individual rats): 10.2 and 13.4 and 12.1; Neuro Tox (Sprague-Dawley rats [3]; [8]): 0 (no degen axons); Total (Sprague-Dawley rats [3]; [5]): 105 and 85 and 110; Score (Sprague-Dawley rats [3]; [6]): 8.1 and 6.5 and 8.5; Score AVE (Sprague-Dawley rats [3]; [9]): 7.7; axonal degeneration (Sprague-Dawley rats [3]; [7]): no axonal degeneration; rat toxicity score (Sprague-Dawley rats [3]; [7]): 7.7
3 | CCC(=O)O[C@H]1C(=O)[C@@]2(C)C([C@H](OC(=O)c3ccccc3)[C@]3(O)C[C@H](OC(=O)[C@H](O)[C@@H](NC(=O)OC4CCCC4)c4cccs4)C(C)=C1C3(C)C)[C@]1(OC(C)=O)CO[C@@H]1C[C@@H]2O (some centres unmarked) [Compound 18926] | 3.7 | 60 and 102 and 49 | 237 and 389 and 283 | 18 (2×) and 16 | 611 and 772 and 943 | 4.74 and 3.3 and 4.93 | – | 222 and 227 and 255 | 156 and 160 and 168 | 166 and 169 and 176 | 3.1 and 3.8 and 4.2 | 40 and 50 and 55 | much less axonal degeneration than docetaxel | 12.3 and 11.4 and 10.2 | rat toxicity score vs docetaxel (Sprague-Dawley rats [2]; weekly): lower score than docetaxel; Day 1 BW (Sprague-Dawley rats [4]; 12 mg/kg IV, individual rats): 219 and 241 and 231; Day 4 ALT (Sprague-Dawley rats [4]; 12 mg/kg IV, individual rats): 26 and 31 and 32; Day 4 BUN (Sprague-Dawley rats [4]; 12 mg/kg IV, individual rats): 9 (2×) and 12; Day 4 PLT (Sprague-Dawley rats [4]; 12 mg/kg IV, individual rats): 829 and 960 and 948; Day 4 WBC (Sprague-Dawley rats [4]; 12 mg/kg IV, individual rats): 5.06 and 5.79 and 4.86; Day 8 BW (Sprague-Dawley rats [4]; 12 mg/kg IV, individual rats): 200 and 213 and 206; Day 10 BW (Sprague-Dawley rats [4]; 12 mg/kg IV, individual rats): 204 and 223 and 208; Day 10 PLT (Sprague-Dawley rats [4]; 12 mg/kg IV, individual rats): 1319 and 1547 and 1442; Day 10 WBC (Sprague-Dawley rats [4]; 12 mg/kg IV, individual rats): 12.8 and 11.8 and 11.6; Neuro Tox (Sprague-Dawley rats [4]; [8]): 0 (no degen axons); Total (Sprague-Dawley rats [4]; [5]): 100 (2×) and 90; Score (Sprague-Dawley rats [4]; [6]): 7.7 (2×) and 6.9; Score AVE (Sprague-Dawley rats [4]; [9]): 7.4; axonal degeneration (Sprague-Dawley rats [4]; intravenous): no axonal degeneration; rat toxicity score (Sprague-Dawley rats [4]; intravenous): 7.4
4 | CCC(=O)O[C@H]1C(=O)[C@@]2(C)C([C@H](OC(=O)c3ccccc3)[C@]3(O)C[C@H](OC(=O)[C@H](O)[C@@H](NC(=O)OC4CCC4)c4cccs4)C(C)=C1C3(C)C)[C@]1(OC(C)=O)CO[C@@H]1C[C@@H]2O (some centres unmarked) [Compound 19244] | 6.0 | 30 and 31 and 64 | 143 and 117 and 158 | 9 and 10 and 11 | 724 and 1221 and 980 | 3.3 and 3.79 and 3.97 | 940 and 653 and 1531 | 226 and 244 and 233 | 198 and 201 and 184 | 208 and 216 and 196 | 6.9 and 5.8 and 5.4 | 90 and 75 and 70 | high axonal degeneration, but was still lower than docetaxel | 7.1 and 3.11 and 9.13 | Neuro Tox (Sprague-Dawley rats [2]; 12 mg/kg IV, individual rat, axonal degeneration grade): 3 (11-50 degen axons)

Values joined by “and” are separate entries in the source; they are usually repeats but may differ in a detail not shown here. Equal values may be shown once.
